# From patent publication US20250147035A1 (QUANTUM SI, published 2025)
# Primed or numbered codes have the meaning given here. Where no end group is shown, it is not given here. [ ]: non-standard residue; d: D form. pS = N[C@@H](COP(=O)(O)O)C(=O)O; Biotin′ = not defined here
# T1: pSAKLDEESILKQ-Biotin
# T1 peptide: [pS]AKLDEESILKQ-{Biotin′}
# T2: TAKLDEESILKQ-Biotin
# T2 peptide: TAKLDEESILKQ-{Biotin′}
# B1: PM16 (Human/PLK1) (other)
# chain: not shown
# Key:
# pSAKLDEESILKQ-Biotin = target: T1, pSAKLDEESILKQ-Biotin; assay: Octet (BLI), fixed reagent concentration;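 also: octet binding of candidate PTM-specific affinity reagents, each at one fixed concentration, to biotinylated phospho-Thr or phospho-Ser peptides, with unmodified biotinylated peptides serving as controls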
# TAKLDEESILKQ-Biotin = target: T2, TAKLDEESILKQ-Biotin; assay: Octet (BLI), fixed reagent concentration;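 also: octet binding of candidate PTM-specific affinity reagents, each at one fixed concentration, to biotinylated phospho-Thr or phospho-Ser peptides, with unmodified biotinylated peptides serving as controls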
binder,measurement,setting,value
B1,Octet binding assay response,pSAKLDEESILKQ-Biotin,0.6
same,Octet binding assay response,TAKLDEESILKQ-Biotin,0.5
